# Test results taken from PubChem BioAssay AID624296 (National Center for Advancing Translational Sciences (NCATS), 2012).
# Among all 350,000 compounds or so, about 9,900 (2.8%) were called active. Inconclusive results, whose numbers are uncertain, are shown with a selection of clear calls. Calls follow the shape of the dose curve; as a rule, active = well fitted activation curve with a large enough effect; inconclusive = small, poorly fitted or top-dose-only effect; inactive = no such curve, though single readings can be large or run the other way. Potencies of inconclusive entries are left out as doubtful fits.
# Experiment: A quantitative high throughput screen for small molecules that induce DNA re-replication in MCF 10a normal breast cells. Also: nearly all actives have a fitted effect of over 50% in size. As to activity, positive = re-replication: % of control where 0% means no effect.
# Settings: MCF 10A DNA re-replication, Hoechst nuclear intensity, 48 h; activity, positive = re-replication: at 46.1 µM (top of the series)
# Potency is read from the fitted curve at half-maximal effect; tags tell the direction and shape of the fitted curve.
SMILES,Potency,"activity, positive = re-replication"
O=C(CN1CCN(S(=O)(=O)c2ccccc2)CC1)Nc1ccc(Cl)c(Cl)c1,"inconclusive [activator, partial curve, poor fit]",–
Cc1cccc(N=c2oc3cc(O)ccc3cc2C(N)=O)c1,"inconclusive [activator, single point]",–
COc1ccc(N(C)C(=O)c2cc3c(s2)-c2ccc(Cl)cc2S(=O)(=O)C3)c(OC)c1,inactive,–
C[C@@]12CC[C@H]3OC(=O)C=C3C1CC[C@@]13CC(CCC12)[C@](CO)(O[C@H]1O[C@H](CO)[C@@H](O)[C@H](O)[C@H]1O)C3 (some centres not stated),"inconclusive [activator, partial curve]",–
COC(=O)CN1C(c2ccc(Cl)cc2)=Nc2ccc(Cl)cc2C1c1ccccc1 (configuration not stated),"inconclusive [activator, single point]",–
CCCCN=C1N/C(=C\c2ccco2)C(=O)N1c1ccccc1,"inconclusive [activator, single point]",–
CCc1ccc(-c2cn3nc(C)c(C)nc3n2)cc1,"inconclusive [activator, single point]",–
COc1cccc(/C=N/NC(=O)c2ccoc2C)c1,inactive,–
O=C(NCCN1CCOCC1)c1ccc2c(c1)N(Cc1ccccc1F)C(=O)CS2,inactive,–
CCc1noc(C)c1C(=O)N(CC)CC(=O)Nc1cc(Cl)ccc1C,inactive,–
OC(COc1ccc2ccccc2c1Br)Cn1cnc(-c2ccccc2)c1 (configuration not stated),"inconclusive [activator, single point]",–
O=C(Cc1cc(=O)[nH][nH]1)N/N=C/C(Cl)=C/c1ccccc1,"inconclusive [activator, single point]",–
Clc1ccc(OCc2nc(-c3ccccn3)n[nH]2)cc1,"inconclusive [activator, single point]",–
C/C(=N\Nc1cc(C(F)(F)F)ccc1Cl)c1ccncc1,"inconclusive [activator, partial curve, poor fit]",–
Cc1cccc2cc(C#N)c(SCCN3CCCCC3)nc12,–,inconclusive: 51.1% [activator]
Cn1nnnc1SCC(=O)Nc1ccccn1,inactive,–
Oc1c(Cl)cc(Cl)cc1/C=N/Nc1ncc(Br)cn1,"inconclusive [activator, partial curve, poor fit]",–
CCOc1cc(/C=C/c2cc(C(F)(F)F)[nH]c(=O)n2)ccc1O,"inconclusive [activator, single point]",–
C[N+](C)(C)c1ccc(/C=N/Nc2nc(Cl)c(C#N)c(Cl)c2Cl)cc1,"inconclusive [activator, single point]",–
O=C(Cc1ccccc1)c1ccc(O)cc1O,inactive,–
CC(C)C(=O)NC(c1cccs1)c1cc([N+](=O)[O-])c2cccnc2c1O (configuration not stated),"inconclusive [activator, partial curve, poor fit]",–
CC(=O)N1CCc2cc(S(=O)(=O)N3c4ccccc4CC3C)ccc21 (configuration not stated),"inconclusive [activator, partial curve]",–
OCCC1CN(Cc2ccc3cccc(F)c3n2)CCN1Cc1ccccc1 (configuration not stated),"inconclusive [activator, single point]",–
COc1ccccc1Nc1nc(NCC(C)C)nc(N)c1[N+](=O)[O-],"inconclusive [activator, single point]",–

SMILES,Potency,"activity, positive = re-replication"
CCOc1cccc(C(=O)Nc2cccc(-c3nc4ncccc4o3)c2C)c1,"inconclusive [activator, partial curve, poor fit]",–
Cc1cccc(-n2nc([N+](=O)[O-])c(N3CCN(C(=O)c4ccco4)CC3)[n+]2[O-])c1,"inconclusive [activator, partial curve, poor fit]",–
COc1ccc(C2=Nn3c(C)nnc3SC2)cc1,inactive,–
CCOC(=O)c1sc(N/N=C/c2cccc(C)c2)nc1C,"inconclusive [activator, single point]",–
COc1ccc(-c2[nH]ncc2CNCc2cc(C)n(C)n2)c(F)c1,"inconclusive [activator, full curve, poor fit]",–
CCOC(=O)N1CCN(C(=O)Cc2ccc(Cl)cc2)CC1,inactive,–
O=C(C1CCN(S(=O)(=O)N2CCC3(CC2)OCCO3)CC1)N1CCC(Cc2ccccc2)CC1,inactive,–
O=C1c2cccc3cccc(c23)N1Cc1cccc(F)c1,active: 25.9 µM,–
Fc1cccc(CSc2ncnc3c2ncn3C2CCCCO2)c1 (configuration not stated),"inconclusive [activator, partial curve, poor fit]",–
CCOC(=O)CN(C(=O)CNC(=O)c1cccs1)C(C(=O)NC1CCCC1)c1cccnc1 (configuration not stated),"inconclusive [activator, single point]",–
COc1cc(-c2cc(C(=O)Nc3ccccc3N3CCOCC3)c3ccccc3n2)cc(OC)c1OC,"inconclusive [activator, single point]",–
CCc1c(C)sc(NC(=O)CN2CCN(C(=O)c3ccco3)CC2)c1C(=O)OC,inactive,–
O=C(Nc1ccccc1C(=O)NCc1cccnc1)c1ccccc1F,inactive,–
COC(=O)c1c(C)[nH]c(O)c1C=Nc1ccc(C(C)C)cc1,"inconclusive [activator, partial curve, poor fit]",–
CCc1ccc(NC(=O)CSc2nnc(-c3cnccn3)n2C)cc1,inactive,–
O=C(CSc1nc2ncc(Br)cc2[nH]1)c1ccc([N+](=O)[O-])cc1,"inconclusive [activator, single point]",–
Cc1n[nH]c(C)c1NC(=O)c1cc([N+](=O)[O-])ccc1Cl,inactive,–
N#C/C(=C\c1ccc(Cl)cc1)c1nc2ncccc2[nH]1,"inconclusive [activator, single point]",–
O=C(/C(=C/c1ccccc1Cl)c1ccccc1)N1CCOCC1,inactive,–
CCCCn1c(N)c(N(CC)C(=O)CSCc2c(C)noc2C)c(=O)[nH]c1=O,inactive,–
O=C(Nc1ccc(N2CCCC2)c(Cl)c1)c1cccnc1,"inconclusive [activator, single point]",–
CC(C)N=c1scc(-c2ccco2)n1/N=C/c1ccc(O)c(O)c1,"inconclusive [activator, full curve, poor fit]",–
Cn1c(-c2ccc(C#N)cc2)c(C#Cc2ccccc2)c2ccccc21,"inconclusive [activator, single point]",–
O=C(C1CC(=O)N(c2ccc(F)cc2)C1)N1CCN(c2ccc(F)cc2)CC1 (configuration not stated),inactive,–

SMILES,Potency,"activity, positive = re-replication"
N#Cc1ccccc1S(=O)(=O)N1CCN(c2nc(-c3cccnc3)nc3ccccc23)CC1,"inconclusive [activator, single point]",–
CCOc1cc(/C=C2\CCn3c2nc2cc(Cl)ccc2c3=O)ccc1O,active: 13 µM,–
O=C(NNc1ccc(C2CCCCC2)cc1)C(O)(c1ccccc1)c1cccs1 (configuration not stated),"inconclusive [activator, single point]",–
O=C(Nc1ccccc1)Nc1ccc(O)c2ccccc12,inactive,–
CC(C)Cc1ccc(S(=O)(=O)N2CCOCC2)cc1,inactive,–
COc1ccc(N2CCN(CC(O)c3c[nH]c4ccc(OC)cc34)CC2C)cc1 (configuration not stated),"inconclusive [activator, partial curve, poor fit]",–
COc1ccc(CC(=O)NNC2=Nc3cccc4cccc2c34)cc1OC,inactive,–
COc1ccc(/C=N/NC(=O)c2ccccc2)cc1OS(=O)(=O)c1ccccc1,active: 20.6 µM,–
O=S(=O)(c1ccc(SCc2ccc(Br)cc2)nc1)N1CCCCC1,inactive,–
CCOC(=O)C(=CNc1ccc(O)c(C(=O)OC)c1)C(=O)OCC,"inconclusive [activator, single point]",–
COC(=O)c1ccc(NC(=O)CN(C)S(=O)(=O)c2ccc(OC)c(C)c2)cc1,"inconclusive [activator, partial curve, poor fit]",–
COc1cc2c(cc1OC)CN(CC(=O)Nc1ccc(S(=O)(=O)N(C)C)cc1)CC2,inactive,–
O=C(NCc1ccccc1)c1cnc2n(c1=O)CCS2,inactive,–
CCCN1C(=O)/C(=C/c2c(N3CCNC(=O)C3CC(=O)OCC)nc3c(C)cccn3c2=O)SC1=S (configuration not stated),"inconclusive [activator, single point]",–
CCOC(=O)C1CCN(C(=O)c2ccco2)CC1,inactive,–
CCOc1ccc2nc(NC(=O)c3ccccn3)sc2c1,"inconclusive [activator, single point]",–
Nc1nc(Nc2ccccc2F)nc(N2CCCC2)c1[N+](=O)[O-],"inconclusive [activator, partial curve, poor fit]",–
CC(C)(C)OC(=O)NCc1ccc(NC(=O)c2nc[nH]c2C(=O)NCCCCNC(=O)c2[nH]cnc2C(=O)Nc2ccc(CNC(=O)OC(C)(C)C)cc2)cc1,inactive,–
Cc1nc(N(C)Cc2ccccc2)c2nnn(Cc3ccccc3)c2n1,inactive,–
Cc1ccc(C)c(SCc2noc(C(=O)NCC3CCCO3)c2C(=O)O)c1 (configuration not stated),inactive,–
CCC1CSC(Nc2ccc(C(=O)/C=C/c3cccc(C)c3)cc2)=N1 (configuration not stated),active: 16.4 µM,–
CC(C)(CCC(=S)N1CCOCC1)c1ccccc1,inactive,–
O=C(OCC(=O)N1CCOCC1)c1ccccc1OCc1ccc(Cl)cc1,"inconclusive [activator, partial curve]",–
COc1cccc(-c2cc(C(=O)N3CCN(c4ncccn4)CC3)c3ccccc3n2)c1,active: 14.6 µM,–
